The source gives no read counts; variants with many changes may rest on few reads.
B1: CPEB3 Ribozyme (parent)
chain: UAACAGGGGGCCACAGCAGAAGCGUUCACGUCGCAGCCCCUGUCAGAUUCUGGUGAAUCUGCGAAUUCUGCUGUAUAUCUC

Variants of: B1
Experiment: self-cleavage, relative activity (ratio to wild type); higher = more cleavage; in vitro, sequencing
Outline: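 Barcoded CPEB3 ribozyme mutants, produced by rounds of error-prone PCR, self-cleaved while being transcribed with T7 RNA polymerase for 5 hours at 37°C and during a subsequent 15 min DNase I step before EDTA was added. Sequencing of template-switched cDNA on Illumina gave cleaved and total reads, and DNA sequencing assigned barcodes to variants. Each variant's relative activity is its cleaved/total read fraction divided by the unmutated ribozyme's fraction, averaged across three batches. A variant needed a minimum of 5 reads.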
Variant UAACAGAGGGCCACAGCAGAAGCGUACACGUCGCAGCCCCUGUCAGAUUCUGGUGAAUCUGCGAAUUCUGCCUUAUAUCUC [G7A U26A U72C G73U] has a self-cleavage of 0.06. For UAACAGAGGUCCACAGCAGAAGCGUUCACGUCGCAGCCCCUGUCAGAUUCUGGAGAUUCUGCGAAUUCUGCUGUAUAUCUC [G7A G10U U54A A57U], the self-cleavage was 0.32. In the case of UAACAGAGGGCCACAGCAGAAGCGUUCACGCCGCAGCCCCCGUCAGAUUCUGGUGAAUCUGCGAAUUCUGCUGUAUAUCUC [G7A U31C U41C], the self-cleavage is reported as 0.21. Work on UAACAGAGGGCCACAGCAGAAGCGUUCACGUCGCAGCCCCAGUCAGAUUCUGGUGAAUCUGCGAAUUCCGCUGUAUAUCUC [G7A U41A U69C] yielded a self-cleavage of 0.12. UAACAGAGGGCCACAGCAGAAGCAUUCACGUCGCAGCCCCCGUCGGAUCCUGGUGGAUCUGCGAAUUCUGCUGUAUAUCUC [G7A G24A U41C A45G U49C A56G] gave a self-cleavage of 0.05. UAACAGAGGGCCACAGCAGAAGCGUCCACGUCGCUGCCCCUGUCAGAUUCUGGUGAACCUGCGAAUUCUGCUGUAAAUCUC [G7A U26C A35U U58C U76A] gave a self-cleavage of 0.07. In the case of UAACAGAGGGCCACAGCAGAAGCGAUCACGUCGCGGCCCCAGUCAGAUUCUGGUGAGUCUGCGAAUUCUGCUGUAUAUCUC [G7A U25A A35G U41A A57G], the self-cleavage is reported as 0.08. In the case of UAACAGAGGGCCACAGCAGAAGCGCUCACGUCGCAGCCCCUGUCAGAUUCUGGUGAAUCUGCGAAUUCUGCUGUACAUCUC [G7A U25C U76C], the self-cleavage is reported as 0.28. UAACAGAGGGCCACAGCAGAAGCGUCCACGUCGCAGCCCCUGCCAGAUUCUGGUGAAUCAGCGAGUUCUGCUGUAUAUCUC [G7A U26C U43C U60A A65G] gave a self-cleavage of 0.3. With UAACAGAGGACCACAGCAGAAGCGUUCACGUCGCAGCCCCUGUCAGAUUCUGGUGAAUCUGCGAAUUCUGCUGCAUAUCUC [G7A G10A U74C] the self-cleavage was 0.08. UAACAGAGGGCCACAGCAGAAGCGUGCACGUCGCAGCCCUUGUCAGAUUCUGGUGAAUCUGCAAAUUCUGCUGUAUAUCCC [G7A U26G C40U G63A U80C] showed a self-cleavage of 0.06. UAACAGAGGGCCACAGCAGAAGCGUUCACAUCGAAGCCCCUGUCAGAUUCUGGUGAAUCUGAGAAUUCUGCUGUAUAUCUC [G7A G30A C34A C62A] gave a self-cleavage of 0.07. UAACAGAGGCCCACAGCAGAGGCGUCCACGUCGCAGCCCCUGUCAGAUUCUGGUGAACCUGCGAAUUCUGCUGUAUAUCUC [G7A G10C A21G U26C U58C] gave a self-cleavage of 0.05. With UAACAGAGGGCCACAGCAGAAGCGUACACGUCGCAGCCCCUGUCAGAUUCUGGUGAAUCAGCGAAUUCUGCUGUAUACCUC [G7A U26A U60A U78C] the self-cleavage was 0.11. UAACAGAGGGCCACAGCAGAAGCGCUCACGUCGCAGCCCCUGUCAGAUUCCGGUGAAUCUGCGAGUUCUGCUGUAUAUCCC [G7A U25C U51C A65G U80C] showed a self-cleavage of 0.07. For UAACAGAGGGCCACAGCAGAAGCGUACACGUCGCAGCCCCUGUCAGAUUCUGGUGAAUCUGCGAAUUCUGCUGUAUACCUC [G7A U26A U78C], the self-cleavage was 0.32. With UAACAGAGGGCCACAGCAGAAGCGUCCACGUCGCGGCCCCUGUCAGAUUCUGGUGAAUCUGCGAAUUCUGCAGUAUAUCUC [G7A U26C A35G U72A] the self-cleavage was 0. With UAACAGAGGGCCACAGCAGAAGCGAUCACGUCGCAGCCCCCGUCAGAUUCUGGUGAAUCUGCGAAUUCUGCUGUGCAUCUC [G7A U25A U41C A75G U76C] the self-cleavage was 0.19. Work on UAACAGAGGGCCACAGCAGAAGCGCUCACGUCGCAGCCCCCGUCAGAUUCUGGUGAAUCUGCGAAUUCUGCUGUAUAUCUC [G7A U25C U41C] yielded a self-cleavage of 0.32. Variant UAACAGAGGGCCACAGCAGAAGCGUACACGUCGCAGCCCCUGACAGGUUCUGGUGAAUCUGCGAAUUCUGCUGUAUAUCUC [G7A U26A U43A A47G] has a self-cleavage of 0.09. With UAACAGAGGGCCACAGCAGAAGCGUUCACGCCGCGGCCCCUGUCAGAUUCUGGUGGAUCUGCGAAUUCUGCUGUAUAUCUC [G7A U31C A35G A56G] the self-cleavage was 0.18. Variant UAACAGAGGGCCACAGCAGAAGCGUUCACGCCGCCGCCCCUGUCAGAUUCCGGUGCAUCUGCGGUUUCUGCUGUAUAUCUC [G7A U31C A35C U51C A56C A64G A65U] has a self-cleavage of 0.05. With UAACAGAGGGCCACAGCAGAAGCGCUCACGUCGCAGCCCCUGCCAGAUUCUGGUGAAUCUGCGAACUCUGCUGUAUAUCCC [G7A U25C U43C U66C U80C] the self-cleavage was 0.12. Variant UAACAGAGGGCCACAGCAGAAGCGUUCACGUCACGGCCCCUGUCAGAUUCUGGUGUAUCUGCGAAUUCUGCUGUAUAUCUC [G7A G33A A35G A56U] has a self-cleavage of 0.14. In the case of UAACAGAGGGCCACAGCAGAAGCGUUCACGUCGCAGCCCCAGUCAGGUUCUGGUGAAUCUGCGAAUACUGCUGUACAUCUC [G7A U41A A47G U67A U76C], the self-cleavage is reported as 0.05. UAACAGAGGGCCACAGCAGAAGCGUUCACGUCGCAGCCCCCGUCAGAUUCUGGUGAAUCUGCGAACUCUGCUGUAUAUCUC [G7A U41C U66C] showed a self-cleavage of 0.34. Variant UAACAGAGGGCCACAGCAGAAGCGUUCACGGCGCAGCCCCUGUCAGAUUCUGGUGAAUCUGCGAGUUCUGCCGUAUAUCUC [G7A U31G A65G U72C] has a self-cleavage of 0.06. UAACAGAGGGCCACAGCAGAAGCGUCCACGUCGCAGCCCCUGUCAGAUUCUGGCGAGUCUGCGAAUUCUGCUUUAUAUCUC [G7A U26C U54C A57G G73U] showed a self-cleavage of 0.06. UAACAGAGGGCCACAGCAGAAGCGUUCACGUCACAGCCCCUGUCAGAUUCCGGUGAAUCUGCGAAUUCUGCUGUAUAUCUC [G7A G33A U51C] gave a self-cleavage of 0.06. UAACAGAGGGCCACAGCAGAAGCGUUCACGUCGCAGCCCCAGCCAGAUUCUGGUGAAUCUGCGAAUUCUGCUGUAUAUCUC [G7A U41A U43C] showed a self-cleavage of 0.09. UAACAGAGGGCCACAGCAGAAGCGUUCACGCCGCAGCCCCUGUCGGAUUCCGGUGAAUCUGCGAAUUCUGCUGUAUAUCUC [G7A U31C A45G U51C] showed a self-cleavage of 0.06. For UAACAGAGGGCCACAGCAUAAGCGUUCGCGUCGCAGCCCCUGUCAGAUUCUGGUGAAUCUGCGUAUUCUGCUGUAUAUCUC [G7A G19U A28G A64U], the self-cleavage was 0.07. UAACAGAGGGCCACAGCAGAAGCGUACACGUCCCAGCCCCUGUCAGAUACUGGUGAAUCUGCGAAAUCUGCUGUAUACCUC [G7A U26A G33C U49A U66A U78C] showed a self-cleavage of 0.04. Variant UAACAGAGGGCCACAGCAGAAGCGUUCACGCCGCAGCCCCUGUCAGAUCCUCGUGAAUCUGCGAAUUCUGCCGUAUACCUC [G7A U31C U49C G52C U72C U78C] has a self-cleavage of 0.05.
